# The campaign covered roughly 120,000 compounds. About 5,300 (4.4%) were called active. This list was built around the results that the source calls inconclusive (neither active nor inactive); the mix of calls is not that of the screen. The call rests on the fitted dose curve; in most records, active means well fitted inhibition curve with a large enough effect; inconclusive means small, poorly fitted or top-dose-only effect; inactive means no such curve, though single readings can be large or run the other way. Potencies beside an inconclusive call are fits to weak or partial responses and may not hold up.
# Experiment: qHTS Primary assay for Inhibitors of Plasmodium falciparum Dd2 growth in vitro; further: nearly all actives have a fitted effect of over 65% in size;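 on activity, negative = inhibition: plate controls were DMSO vehicle for no effect and reference drug for full effect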
# Conditions: P. falciparum Dd2 growth, SYBR Green, 72 h; activity, negative = inhibition: at 28.9 µM (top of the series) unless noted; series mostly up to 28.9 µM
# How it was run: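 Readout: SYBR Green fluorescence, 485 nm excitation, 535 nm emission, after ~16 h lysis at 37C. Before that, Dd2-infected red cells (2.5% hematocrit) grew 72 h with compound, 29 uM top final concentration.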
# Potency means the concentration at half of the fitted maximal effect; tags describe the fitted curve by direction and shape.
Structure (SMILES),"activity, negative = inhibition",Potency,outcome
Cc1ccc2c(c1)N1C(=O)OC[C@@H]1CCN(C(=O)c1ccc(C#N)cc1)C2,inactive: -2.18% [at 44.1 µM],,
COc1cccc(NC(=O)N[C@H]2C[C@@H](c3nc(C)no3)N(C)C2)c1,,"inconclusive: 0.562 µM [inhibitor, full curve, poor fit]",
CCOC(=O)c1oc2c(c1C)-c1nn(Cc3ccc(Cl)cc3)cc1CC2,,"inconclusive: 8.91 µM [inhibitor, partial curve]",
CN1CC2(CCCN(CC3CC3)C2)c2cc(C(=O)NCCc3ccccn3)ccc21 (centres undefined),,"inconclusive: 3.16 µM [inhibitor, partial curve]",
CC(C)c1ccc(NC(=O)N2CCc3[nH]c4ccc(F)cc4c3C2)cc1,,"inconclusive: 12.6 µM [inhibitor, partial curve, poor fit]",
Cc1ccc(OC2(C(=O)O)CCN(Cc3ccc(CO)o3)CC2)cc1,inactive: 1.1%,,
COCCNC(=O)CCCN1C(=O)COc2ccc(C(=O)COc3ccc(C)cc3OC)cc21,,"inconclusive: 8.91 µM [inhibitor, partial curve]",
COCCN1CCCCCC(O)c2cc(C(=O)N(C)Cc3cccnc3)ccc21 (centres undefined),,"inconclusive: 17.8 µM [inhibitor, single point]",
Cn1c(CN2CCOC[C@H]2c2ncc(-c3ccc(Cl)s3)[nH]2)nc2ccccc21,,active: 11.2 µM,
CCOCCn1c(=O)n(CCN2C[C@H]3CC[C@H]2C3)c2cc(C(=O)O)cnc21,inactive: 2.96%,,
O=C(C1=NO[C@@H]2CN(c3ccc(OC(F)(F)F)cc3)C[C@H]12)N1CCOCC1,,"inconclusive: 17.8 µM [inhibitor, single point]",
O=C(N[C@H]1CCN2C(=O)c3cc(-c4ccsc4)ccc3NC(=O)[C@H]12)C1CCCC1,,,inactive [at 44.1 µM]
O=C(Nc1cccc(Br)c1)N1CCC(CN2CCCCC2)CC1,,"inconclusive: 11.2 µM [inhibitor, partial curve]",
COc1ccc(OCCn2cc(C(=O)C3CCCCC3)c3ccccc32)cc1,,"inconclusive: 11.2 µM [inhibitor, single point]",
COc1cccc(N2CCN(C(=O)c3cnn(C(C)(C)C)c3C3CCN(C(=O)OC(C)(C)C)CC3)CC2)c1,,active: 12.6 µM,
O=C([C@@H]1C[C@@H](O)[C@H](O)[C@@H]2NC(=S)N(c3ccc4c(c3)OCO4)[C@@H]21)N1CCOCC1,inactive: -19.4% [at 44.1 µM],,
COc1ccc(C2Sc3ccccc3NC3=C2C(=O)c2ccccc23)c(OC)c1OC (centres undefined),,active: 0.316 µM,
Cc1ccc2nc(-c3cc(NC(=O)c4ccc5c(c4)OCCO5)ccc3Cl)oc2c1,inactive: 13%,,
CC(C)NC(=O)Cc1cccn1-c1ccc(F)cc1,,"inconclusive: 20 µM [inhibitor, single point]",
COc1ccc2[nH]c3c(c2c1)CCN(C)C31CCN(C(=O)c2ccoc2)CC1,,,inactive
COCC(=O)N1CCCC(C(=O)N2CCN(c3ccc(F)cc3)CC2)CCNC(=O)CC1 (centres undefined),inactive: 5.09%,,
COCC1CCN(C(=O)c2ccc3oc(-c4ccc(C(F)(F)F)cc4)nc3c2)C1 (centres undefined),inactive: 4.2%,,

Structure (SMILES),"activity, negative = inhibition",Potency,outcome
Cc1ccc(NC(=O)N2CCN(c3nnnn3-c3cccc(C(F)(F)F)c3)CC2)cc1F,,active: 7.94 µM,
CCN(CC)c1cc(CCC(=O)NCCN2CCCCCC2)ccn1,,active: 3.55 µM,
CC(=O)c1c(C)nn(CCC(=O)N[C@H]2CCOC[C@H]2C2CCOCC2)c1C,inactive: -3.85%,,
COc1ccc(CNC(=O)C[C@@H]2CCNC[C@@H]2Cc2cc(CN3CCOCC3)on2)cc1,inactive: 15.7%,,
Cc1nc(C)c(C(=O)N2CCC(N3C(=O)C4(CCCC4)C3c3ccccc3)CC2)s1 (centres undefined),,"inconclusive: 5.62 µM [inhibitor, partial curve, poor fit]",
C[C@@H]1CN(Cc2nc3c(n2Cc2ccccc2)C(=O)N(Cc2ccccc2F)CCN3)C[C@H](C)O1,inactive: -18.7%,,
COc1ccc(CCNc2ncnc3c2CN(c2ccccc2F)C(=O)CN3C)cc1,,,inactive
CCc1nc(-c2c3n(c(=O)n(CC(=O)NCc4ccc(C)cc4)c2=O)CCCC3)no1,,"inconclusive: 10 µM [inhibitor, single point]",
CS(=O)(=O)N1CCCN(C2CCOCC2)CCNC(=O)CC1c1ccccc1 (centres undefined),,"inconclusive: 20 µM [inhibitor, single point]",
Cc1ccc(-n2c(C)nc3c(cnn3-c3ccccc3C)c2=O)cc1F,,"inconclusive: 14.1 µM [inhibitor, partial curve, poor fit]",
Cc1cccc(Cn2cc(C(=O)Nc3ccc(F)c(C(F)(F)F)c3)ccc2=O)c1,,"inconclusive: 10 µM [inhibitor, single point]",
CN1C[C@@H](NC(=O)c2ccccc2)C[C@H]1c1nc(-c2ccncc2)no1,,"inconclusive: 12.6 µM [inhibitor, partial curve]",
COc1ccc(-c2nc(-c3ccccc3)nc3c2CN(C(=O)c2ccc(C)cc2)CC3)cc1,,active: 11.2 µM,
COc1ccc(CN2CC(c3nc(Cc4cccnc4)no3)C2)c(OC)c1,,"inconclusive: 2.24 µM [inhibitor, partial curve]",
CC(=O)c1ccc(NC(=O)c2c3c(nc4ccccc24)C(=O)N(C2CCCCC2)C3)cc1,,"inconclusive: 17.8 µM [inhibitor, single point]",
CCN(C(=O)CN1C(=O)NC2(CCC(C(C)(C)C)CC2)C1=O)c1cccc(C)c1 (centres undefined),,"inconclusive: 10 µM [inhibitor, single point]",
CCN(CC)CCCNC(=O)C1CCN(S(=O)(=O)CC)CC1,,"inconclusive: 0.1 µM [inhibitor, full curve, poor fit]",
CCN(CC)C(=O)[C@@H]1CCC[C@@H](NC2CCN(C)CC2)CN(C)C(=O)C1,inactive: 9.89% [at 44.1 µM],,
Cc1cc(C)c(Cn2c3ccccc3c3cnn(CC(=O)N4CCCCCC4)c(=O)c32)c(C)c1,,active: 7.08 µM,
CCc1nn(-c2ccccc2)c(Oc2cccc(C)c2)c1CCC(=O)N1CCOCC1,,"inconclusive: 0.708 µM [inhibitor, partial curve]",
COc1cccc(-c2cc(-c3nc(C4CC(=O)N(C5CCCCC5)C4)no3)[nH]n2)c1 (centres undefined),,active: 5.01 µM,
COc1ccc([C@@H]2CN(Cc3ccc(C#N)cc3)C[C@H]2N(C)C)cc1,,"inconclusive: 10 µM [inhibitor, partial curve, poor fit]",

# Source: PubChem BioAssay AID1347417 (National Center for Advancing Translational Sciences (NCATS), 2020)
